Test results published in PubChem BioAssay AID588855 (National Center for Advancing Translational Sciences (NCATS), 2011).
Several values for one entry are separate records, joined by “and”; a condition that tells them apart may be missing. Equal values may be shown once. Hit rate of the full screen: of about 410,000 compounds, about 5,000 (1.2%) were called active. The shares of active, inactive and inconclusive entries below differ from those in the screen. The call rests on the fitted dose curve; in most records, active means well fitted inhibition curve with a large enough effect; inconclusive means small, poorly fitted or top-dose-only effect; inactive means no such curve, though single readings can be large or run the other way. Potencies beside an inconclusive call are fits to weak or partial responses and may not hold up.

Assay: qHTS for Inhibitors of TGF-b; further: nearly all actives have a fitted effect of over 65% in size
Settings: HepG2 CAGA-GFP TGF-b/SMAD3 reporter, GFP fluorescence, 18 h, TGF-beta stimulated, 500 pg/mL final; series mostly up to 46.1 µM
Outline: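 HEPG2 CAGA-GFP reporter cells (1000/well, DMEM with 1% FBS) received compounds, then recombinant TGF-beta at 500 pg/mL final for 18 hours at 37 degrees C. Per-cell GFP summed per well was normalised to unstimulated and stimulated DMSO controls before curve fitting.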
Potency means the concentration at half of the fitted maximal effect; tags describe the fitted curve by direction and shape.

Row | Compound | Potency
1 | COC(=O)COc1cccc(NS(=O)(=O)c2cccc([N+](=O)[O-])c2)c1 | inconclusive: 1.12 µM [inhibitor, full curve]
2 | N#CC(C(=O)Nc1ccc(Cl)c(Cl)c1)=C1Nc2ccccc2N1 | inconclusive: 35.5 µM [inhibitor, single point]
3 | CN(CCC1CCOCC1)C(=O)CC1C(=O)NCCN1CC1CCCCC1 (configuration not stated) | inactive
4 | CCCc1cc(=O)[nH]c(NCc2ccc(Cl)cc2)n1 | inconclusive: 28.2 µM [inhibitor, single point]
5 | CCOC(=O)COc1ccc(Br)cc1C1NC(=O)NC(C)=C1C(=O)NCc1ccccc1 (configuration not stated) | inconclusive: 6.31 µM [inhibitor, single point]
6 | CN(CCOc1ccc(Cl)cc1)C(=O)c1ccccc1SCC(=O)N1CCCC1 | inconclusive: 35.5 µM [inhibitor, single point]
7 | CC(=O)c1cccc(NC(=O)CCCCCn2nnc3ccccc3c2=O)c1 | inactive
8 | N=c1n(Cc2ccccc2Cl)c2ccccc2n1CC(O)c1ccco1 (configuration not stated) | inconclusive: 6.31 µM [inhibitor, single point]
9 | Cc1ccnc(NC(c2ccccc2F)c2ccc3cccnc3c2O)c1 (configuration not stated) | inconclusive: 7.94 µM [inhibitor, partial curve]
10 | NC(=S)n1[nH]c(-c2ccc([N+](=O)[O-])cc2)c(N=Nc2cccc(Cl)c2)c1=O | inconclusive: 15.8 µM [inhibitor, partial curve, poor fit]
11 | CC(C)Cn1c(=O)c2ccccc2n2c(-c3cccc(Cl)c3)nnc12 | inconclusive: 22.4 µM [inhibitor, single point]
12 | O=S(=O)(c1ccccc1)c1nc(Nc2ccccc2N2CCOCC2)sc1Cl | inconclusive: 11.2 µM [inhibitor, partial curve, poor fit]
13 | NC(=O)C1(N2CCCCC2)CCN(C2CC(=O)NC2=O)CC1 (configuration not stated) | inconclusive: 17.8 µM [inhibitor, partial curve, poor fit]
14 | Cc1ccc(N2C(=O)C3C4C=CC(CNC(=S)Nc5cccc(Cl)c5)(O4)C3C2=O)cc1 (configuration not stated) | inconclusive: 12.6 µM [inhibitor, partial curve, poor fit]
15 | CCOC(=O)c1c(S(=O)(=O)N2CCN(C3CCCCC3)CC2)c(C)n(C)c1C | inactive
16 | CSc1nsc(SCC(=O)Nc2ccc(Br)cn2)n1 | inconclusive: 0.562 µM [inhibitor, full curve, poor fit]
17 | COc1ccc(C(=O)NCc2nnnn2-c2ccc(C)c(C)c2)cc1 | inactive
18 | COCCNC(=O)C1=C(N)C(C(=O)Nc2ccc(C)c(S(=O)(=O)N3CCCCC3)c2)SC1=Nc1ccc(C)cc1C (configuration not stated) | inconclusive: 22.4 µM [inhibitor, single point]
19 | Cc1cc(N2CCC(C)CC2)nc(NCc2ccccc2)n1 | inconclusive: 35.5 µM [inhibitor, single point]
20 | COc1ccc(S(=O)(=O)N2CCOCC2)cc1NC(=O)CN1CCCCCC1 | inconclusive: 25.1 µM [inhibitor, single point]
21 | COc1ccc(OC)c(NC(=O)Nc2c(O)ccc3ccccc23)c1 | inconclusive: 22.4 µM [inhibitor, single point]
22 | COc1ccccc1NC(=O)CSc1nnnn1-c1ccc2c(c1)OCO2 | inactive
23 | Cc1ccc(-c2c(C)n([O-])c3c([n+]2=O)CCCC3)cc1 | inconclusive: 12.6 µM [inhibitor, single point]

Row | Compound | Potency
24 | CCOC(=O)C1CCCN(Cc2ccc(OC)c(OCc3ccccc3)c2)C1 (configuration not stated) | inactive
25 | COc1ccc(CNC(=O)COc2ccccc2C(=O)c2cnn(-c3ccccc3)c2)cc1OC | inconclusive: 35.5 µM [inhibitor, single point]
26 | O=C(CSc1ccc2nnc(-c3cccnc3)n2n1)NCC1CCCO1 (configuration not stated) | inactive
27 | CCN(CC)C(=O)CC(c1ccc(N(C)C)cc1)c1c(OC)cc(OC)c2c(-c3ccccc3)cc(=O)oc12 (configuration not stated) | inconclusive: 35.5 µM [inhibitor, single point] and inconclusive: 15.8 µM [inhibitor, single point]
28 | Oc1ccc2ccccc2c1CNc1ccc(Br)cn1 | inconclusive: 15.8 µM [inhibitor, single point]
29 | O=S1(=O)N=C(N/N=C/c2cccs2)c2ccccc21 | inconclusive: 35.5 µM [inhibitor, single point]
30 | Cc1n[nH]c(C)c1CCc1nc2c3ccccc3nc(SCC(=O)Nc3ccccc3F)n2n1 | inconclusive: 35.5 µM [inhibitor, single point]
31 | c1ccc2c(c1)NC(CN1CCOCC1)CO2 (configuration not stated) | inconclusive: 35.5 µM [inhibitor, single point]
32 | CCC(C)(C)NC(=O)c1cc(C(=O)OC)cc([N+](=O)[O-])c1 | inactive
33 | CCOc1ccc(NC(=O)CN2C(=O)COc3ccc(S(=O)(=O)Nc4ccccc4)cc32)cc1 | inconclusive: 15.8 µM [inhibitor, partial curve, poor fit]
34 | O=C1CCC(=O)N1CC1CC2CCC1C2 (configuration not stated) | inactive
35 | Cc1ccc(C2(C)NC(=O)N(CC(=O)Nc3ccc(Cl)c(S(=O)(=O)N4CCCCC4)c3)C2=O)cc1 (configuration not stated) | inconclusive: 17.8 µM [inhibitor, single point]
36 | Cc1ccc(-n2cccn2)c(CN2CCCC(C(=O)c3sccc3C)C2)c1 (configuration not stated) | inconclusive: 35.5 µM [inhibitor, single point]
37 | COc1cc(C(=O)NCC(c2cccnc2)N2CCN(c3ccc(F)cc3)CC2)cc(OC)c1OC (configuration not stated) | inactive
38 | c1ccc(-n2cnc3cc(NCc4ccco4)ccc32)cc1 | inconclusive: 0.398 µM [inhibitor, full curve, poor fit]
39 | Cc1c(CCC(=O)O)c(=O)oc2cc3occ(-c4ccc(Br)cc4)c3cc12 | inactive
40 | COc1cc(NC(=O)c2noc3c2CCc2ccccc2-3)cc(OC)c1OC | inconclusive: 12.6 µM [inhibitor, partial curve, poor fit]
41 | Cc1ccc(-c2noc(CN(C3CCCCC3)S(=O)(=O)c3ccc(C)cc3)n2)cc1 | inactive
42 | COc1cccc(-c2nnc3n(Cc4ccc(F)cc4)c(=O)c4ccccc4n23)c1 | inactive
43 | O=C(Nc1ccccn1)c1ccc(Cl)c(S(=O)(=O)N2CCOCC2)c1 | inactive
44 | CC(C)CN(C(=O)CSc1nc2ccccc2o1)c1c(N)n(Cc2ccccc2)c(=O)[nH]c1=O | inconclusive: 17.8 µM [inhibitor, single point]
45 | CCCCCc1ccc(OCCC[n+]2ccccc2)c(CCCCC)c1 | inconclusive: 35.5 µM [inhibitor, single point]
46 | CC(C)(C)OC(=O)N1CCC(c2c(C(=O)NCc3ccc4c(c3)OCO4)cnn2-c2ccc(F)cc2F)CC1 | active: 12.6 µM

Row | Compound | Potency
47 | CC1=C(C)C(=O)C(CCCCC#CCCCC#CCO)=C(C)C1=O | inconclusive: 11.2 µM [inhibitor, partial curve]
48 | CCOC(=O)Cc1csc(NC(=O)c2csc3c2CCCC3)n1 | inactive
49 | Cc1ccc(NCC(=O)N/N=C/c2ccc(-c3cccc(C(F)(F)F)c3)o2)cc1 | inactive
50 | Cc1csc(NC(=O)c2oc3ccccc3c2C)n1 | inconclusive: 2.82 µM [inhibitor, partial curve, poor fit]
51 | COc1cccc(N2CCN(C(=O)c3ccc(CSc4nc5ccncc5[nH]4)cc3)CC2)c1 | inconclusive: 10 µM [inhibitor, partial curve]
52 | Cc1ccc(-c2cc3ncc(C(=O)c4cc([N+](=O)[O-])ccc4O)cn3n2)cc1 | inconclusive: 10 µM [inhibitor, partial curve, poor fit]
53 | CCc1ccc(-n2c(C)nnc2SCc2nc(-c3ccc(OC)cc3)no2)cc1 | inactive
54 | CC1(Cc2ccc(F)cc2)C(=O)Nc2ccc(S(=O)(=O)NC3CCCCC3)cc21 (configuration not stated) | inconclusive: 10 µM [inhibitor, partial curve, poor fit]
55 | Cn1c(N)c(C(=O)COC(=O)c2ccc([N+](=O)[O-])o2)c(=O)n(C)c1=O | active: 12.6 µM
56 | Cc1ccc(C(=O)CCC(=O)N2CCN(C/C=C/c3ccccc3)CC2)cc1 | inactive
57 | Nc1ccccc1Nc1cc(-c2cccc(Cl)c2)nn1-c1ccccc1 | inconclusive: 35.5 µM [inhibitor, single point]
58 | COc1ccc(-c2ccc(CN3C(C(C)C)C(=O)N(Cc4cn(Cc5ccco5)nn4)CCS3(=O)=O)cc2)cc1OC (configuration not stated) | inactive
59 | O=C(Nc1nnc(S(=O)(=O)N2CCCc3ccccc32)s1)c1ccccc1Br | inconclusive: 22.4 µM [inhibitor, single point]
60 | COc1cccc2sc(N3CCN(C(=O)C4COc5ccccc5O4)CC3)nc12 (configuration not stated) | inconclusive: 35.5 µM [inhibitor, single point]
61 | CN(C)S(=O)(=O)N1CCC(Oc2ccc(C(=O)NC3CCOC(C)(C)C3)cc2)CC1 (configuration not stated) | inactive
62 | CC(C)c1ccc(NC(=O)c2ccc(NS(C)(=O)=O)cc2)cc1 | inactive
63 | CCOc1cccc(C2c3c(oc4ccccc4c3=O)C(=O)N2c2nc(C)c(C(=O)OC)s2)c1 (configuration not stated) | inconclusive: 7.08 µM [inhibitor, full curve]
64 | COc1ccc(OC)c(NC(=O)c2csnn2)c1 | inactive
65 | O=C(NC1CCCCCC1)c1cccnc1Sc1ccccc1 | inconclusive: 0.112 µM [inhibitor, full curve, poor fit]
66 | CCOc1ccccc1-c1nnc(SCc2ccc(Cl)cc2)o1 | inconclusive: 35.5 µM [inhibitor, single point]
67 | COCCCNC(=O)c1cc(-c2cccnc2)nc2ccccc12 | inconclusive: 1.58 µM [inhibitor, partial curve, poor fit]
